# Data from PubChem BioAssay AID504845 (National Center for Advancing Translational Sciences (NCATS), 2011).
# Screen size: about 390,000 compounds; about 150 (0.038%) were called active. This list was built around the results that the source calls inconclusive (neither active nor inactive); the mix of calls is not that of the screen. Calls follow the shape of the dose curve; as a rule, active = well fitted inhibition curve with a large enough effect; inconclusive = small, poorly fitted or top-dose-only effect; inactive = no such curve, though single readings can be large or run the other way. Potencies of inconclusive entries are doubtful fits and often do not repeat.
# Target: Regulator of G-protein signaling 4 (Homo sapiens) (UniProt P49798)
# Test: Inhibitors of Regulator of G Protein Signaling (RGS) 4: qHTS; also: nearly all actives have a fitted effect of over 75% in size
# Conditions: Transcreener GDP fluorescence polarization, RGS4-accelerated GTP hydrolysis; series mostly up to 114 µM
# Procedure, shortened: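 MLSMR compounds (23 nl, pin-transferred) preincubated 10 min at room temperature with a 500nM (2x) first reagent, then RGS4 at 900nM (2x) plus Transcreener GDP mix added; fluorescence polarization (620/688 nm) read before and after 90 min at 30 °C.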
# Potency is read from the fitted curve at half-maximal effect; tags tell the direction and shape of the fitted curve.
# Sequence of UniProt P49798 (P49798 whole entry, looked up): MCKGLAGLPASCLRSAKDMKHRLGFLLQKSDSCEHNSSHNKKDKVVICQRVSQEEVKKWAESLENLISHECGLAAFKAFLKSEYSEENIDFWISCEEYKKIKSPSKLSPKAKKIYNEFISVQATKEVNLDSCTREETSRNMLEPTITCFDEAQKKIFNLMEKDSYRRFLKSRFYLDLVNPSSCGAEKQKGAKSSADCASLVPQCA
row,SMILES,Potency
1,OC(CNc1ccccc1)Cn1ccc2ccccc21 (centres undefined),inactive
2,CSC(SC)=C(C#N)C(=O)c1ccccc1,inactive
3,COc1ccc(-c2cc(C(F)F)n3ncc(C(=O)Nc4cccc(S(=O)(=O)N5CCOCC5)c4)c3n2)cc1,"inconclusive: 50.1 µM [inhibitor, partial curve, poor fit]"
4,CCC1C(c2ccccc2)N(C)C(c2ccccc2)CC1(O)c1ccccc1 (centres undefined),inactive
5,COc1ccc(-c2ccc([C@H]3[C@@H]4C=CCC[C@@]4(C)C(=O)N3Cc3ccccc3)c(F)c2)cc1,inactive
6,CCOCC(=O)Nc1nnc(COc2ccc(Cl)cc2)s1,"inconclusive: 44.7 µM [inhibitor, partial curve, poor fit]"
7,Cc1cc(C)nc(NS(=O)(=O)c2ccc(NC(=O)c3ccccc3[N+](=O)[O-])cc2)n1,inactive
8,O=C(CC(C(=O)O)C1CCCO1)Nc1cccc(C(F)(F)F)c1 (centres undefined),inactive
9,CC(=O)N(C)C1=C(N2CCOCC2)C(=O)c2ccccc2C1=O,inactive
10,Cc1csc2c(=O)sc(NC(=O)c3cccs3)nc12,"inconclusive: 17.8 µM [inhibitor, full curve, poor fit]"
11,COc1ccc(Cl)cc1NC(=S)N(CCCN1CCOCC1)Cc1cn(C)c2ccccc12,"inconclusive: 17.8 µM [inhibitor, full curve, poor fit]"
12,O=C(N/N=C/c1ccccc1O)c1ccncc1,inactive
13,Cc1nc(SC2CC(=O)N(c3cc(Cl)cc(Cl)c3)C2=O)nc2c1CCCC2 (centres undefined),"inconclusive: 100 µM [inhibitor, single point]"
14,Cc1ccc(C(=O)O)cc1NC(=O)CCc1ccccc1,"inconclusive: 50.1 µM [inhibitor, partial curve, poor fit]"
15,C[C@H]1CN([C@@H](C)CO)C(=O)Cc2cc(NC(=O)CCC(F)(F)F)ccc2O[C@H]1CN(C)S(C)(=O)=O,inactive
16,CCOC(=O)N1CCc2c(sc(NC(=O)c3ccc(S(=O)(=O)N4CCCC4)cc3)c2C#N)C1,"inconclusive: 50.1 µM [inhibitor, partial curve, poor fit]"
17,Nc1ccc2nn(-c3ccccc3)nc2c1,"inconclusive: 89.1 µM [inhibitor, single point]"
18,COCCCNC(=S)NNC(=S)NCCCOC,"inconclusive: 79.4 µM [inhibitor, partial curve, poor fit]"
19,CC1=CC(C)(C)N(C(=O)CSc2nnc(N)s2)c2c(C)cc(C)cc21,inactive
20,COc1ccc2c(CC(=O)N[C@@H](Cc3ccccc3)C(=O)O)cc(=O)oc2c1,inactive
21,COc1ccccc1NC(=O)Cn1nc(-c2ccc3c(c2)OCCO3)ccc1=O,inactive
22,CCOC(=O)CNC(c1ccccc1)c1cc(Br)ccc1NC(=O)CCN1CCOCC1 (centres undefined),"inconclusive: 28.2 µM [inhibitor, full curve, poor fit]"

row,SMILES,Potency
1,C/C=C1\COC(C(=O)NCCOCCO)(C(F)(F)F)C=C1C=C1CCCCC1 (centres undefined),inactive
2,COc1ccc(S(=O)(=O)N2CCN(c3ccccc3F)CC2)cc1-c1noc(C)n1,"inconclusive: 100 µM [inhibitor, partial curve, poor fit]"
3,O=C(NCc1ccc(F)cc1)c1ccc2c(Cl)c3c(nc2c1)CCCC3,"inconclusive: 89.1 µM [inhibitor, single point]"
4,O=C(O)c1cccc(-c2ccc(/C=C3/SC(=Nc4ccccc4)N(Cc4cccnc4)C3=O)o2)c1,"inconclusive: 100 µM [inhibitor, partial curve, poor fit]"
5,Cc1cc(-c2nc3cccnc3s2)ccc1NS(=O)(=O)c1ccc2c(c1)OCCO2,inactive
6,CCC(=O)N(CCC(c1ccccc1)c1ccco1)Cc1cccs1 (centres undefined),"inconclusive: 79.4 µM [inhibitor, partial curve, poor fit]"
7,CCOC(=O)c1c(SCCN2CCCC2)n(-c2ccccc2)c(=S)n(-c2ccccc2)c1=O,"inconclusive: 44.7 µM [inhibitor, partial curve, poor fit]"
8,Cc1ccc(-c2ccc(C(=O)O)c(C)n2)cc1,inactive
9,O=C(O)[C@@H]1C[C@@H](C(=O)O)N1,"inconclusive: 0.267 µM [inhibitor, full curve, poor fit]"
10,COc1ccccc1/C=N/NS(=O)(=O)c1ccccc1,"inconclusive: 50.1 µM [inhibitor, partial curve, poor fit]"
11,CC(=O)Nc1ccc(S(=O)(=O)N(Cc2ccccc2)C(C)C)cc1,"inconclusive: 100 µM [inhibitor, partial curve, poor fit]"
12,O=C1NCCNC1c1ccccc1 (centres undefined),"inconclusive: 70.8 µM [inhibitor, single point]"
13,Cn1cnnc1SCc1ccc(C(=O)N=Nc2c(O)n(Cc3ccc(Cl)cc3)c3ccccc23)cc1,"inconclusive: 50.1 µM [inhibitor, partial curve, poor fit]"
14,COc1cccc(NC(=O)CN(C)C(=O)c2ccccc2-c2nc3ccccc3s2)c1,"inconclusive: 50.1 µM [inhibitor, partial curve, poor fit]"
15,CC(=O)Nc1ccc(C(=O)CSc2nnc(-c3ccccc3)n2-c2ccccc2)cc1,"inconclusive: 50.1 µM [inhibitor, partial curve, poor fit]"
16,O=[N+]([O-])c1cc2c(cc1/C=N\NS(=O)(=O)c1ccccc1)OCO2,"inconclusive: 31.6 µM [inhibitor, full curve, poor fit]"
17,O=C(COC(=O)c1ccc(S(=O)(=O)NCc2ccco2)cc1)NC1CCCCCC1,inactive
18,CN(C(=O)COC(=O)CSc1ccc([N+](=O)[O-])cc1)c1ccccc1,"inconclusive: 39.8 µM [inhibitor, full curve, poor fit]"
19,N#CCc1ccc(NC(=O)/C=C/c2ccc([N+](=O)[O-])o2)cc1,"inconclusive: 79.4 µM [inhibitor, partial curve, poor fit]"
20,OC(CNC1CCCC1)COc1ccccc1Br (centres undefined),inactive
21,N#C/C(N=Nc1ccccc1O)=N\Nc1ccccc1O,"inconclusive: 100 µM [inhibitor, single point]"
22,O=C(Nc1nncs1)c1cccc(S(=O)(=O)N2CCc3ccccc32)c1,"inconclusive: 44.7 µM [inhibitor, partial curve, poor fit]"
